Hit rate of the full screen: of about 48,000 compounds, about 120 (0.25%) were called active. Not shown: some 4% with an inconclusive outcome. Calls come from the whole dose curve; as a rule, active = well fitted activation curve with a large enough effect; inconclusive = small, poorly fitted or top-dose-only effect, or another doubt; inactive = no such curve, though single readings can be large or run the other way. This is a selection; strong and weak results do not stand in their true shares. Where no call is shown, the source filed none.
Test: Primary qHTS for Identification of Small Molecule Activators of Huntingtin-Antisense Promoter Activity; note: nearly all actives have a fitted effect of over 55% in size
Details: HEK293 HTT-AS promoter firefly luciferase reporter, 24 h; activity change, positive = activation: at 57.5 µM (top of the series), percent change from vehicle, -100% = no light
Source text: Assay Provider: Russell L. Margolis M.D.
Department Neurology, Johns Hopkins University School of Medicine, Baltimore, MD
Huntington's Disease (HD) is a neurodegenerative disorder caused by a CAG repeat expansion in exon 1 of huntingtin (HTT). While there are currently no disease-modifying treatments for HD, recent efforts have focused on development of nucleotide-based therapeutics to lower HTT expression. As an alternative to siRNA or oligonucleotide methods, we hypothesized that suppression of HTT expression might be accomplished by small molecules that either (1) directly decrease HTT expression by suppressing HTT promoter activity or (2) indirectly decrease HTT expression by increasing the promoter activity of HTT-AS, the gene antisense to HTT that appears to inhibit expression of HTT.
We developed and employed a high throughput screen for modifiers of HTT and HTT-AS promoter activity using luminescent reporter HEK293 cells; of the 52,041 compounds tested, we identified 898 replicable hits. We used a rigorous stepwise approach to assess compound toxicity and the capacity of the compounds to specifically lower huntingtin protein in 5 different cell lines, including HEK293 cells, HD lymphoblastoid cells, mouse primary neurons, HD iPSCs differentiated into cortical-like neurons, and HD hESCs. We found no compounds which were able to lower huntingtin without lowering cell viability in all assays, though the potential efficacy of a few compounds at non-toxic doses could not be excluded.
SEQUENCE No. (1, 2, 3, etc.); […] (e.g., Cells, Incubation, Reagent, etc.); VALUE and DESCRIPTION.
1; Reagent; 4 uL; 2,500 Hek293 luciferase reporter cells per wells
3; Compound; 23 nL; Control inhibitor / compound library
5; Reagent; 2.5 uL; Firefly Luc reagent; Dual-Glo Luciferase Reporter Assay System (Promega)
6; Time; 10 min; room temperature incubation
7; Detection; Luminescence; FLuc
NOTES (numbers refer to sequence above)
1; High-throughput screening, measuring luminescence from a Hek293 luciferase reporter, was performed in 1,536 well white-walled tissue-culture treated plates. 2,500 cells were plated in 4 µL of Opti-MEM per well using a Multidrop Combi Reagent Dispenser (ThermoFisher).
2; Assay plates were cultured for 24 hours.
3; Control inhibitor (PTC124; final concentration of 50 uM) and compound library (at final concentrations of 460 nM - 57.5 uM) were added to the assay plate using the Kalypsis Pintool Robotic System equipped with 1536 pinheads.
4; Cells were then incubated for 24 hours at 37 degrees C prior to luminescence measurements.
5; In all cases, luminescence was measured using the Dual-Glo Luciferase Reporter Assay System (Promega) following the manufacturer's instructions.
6; Room temperature incubation.
7; Luminescence signal was obtained using the PerkinElmer ViewLux plate reader. Results were normalized to vehicle control (0% activity) and zero RLU (-100% activity).
`O=C1C(=O)N(C2CCN(S(=O)(=O)c3ccccc3)CC2)CCN1Cc1ccccc1` gave an activity change, positive = activation of 0.994%. With `Cc1ccc(F)cc1NC(=O)CCc1c(C)nn(-c2ccc(N3CCCCC3)nn2)c1C` the activity change, positive = activation was 38.7%. `Cc1ccc(S(=O)(=O)Nc2ccc(-c3ccc(N4CCCCCC4)nn3)cc2)cc1C` showed an activity change, positive = activation of -5.85%. `CC1CCN(c2ccc(-c3cccc(NS(=O)(=O)c4ccc(Cl)s4)c3)nn2)CC1` gave an activity change, positive = activation of 72.8%. Work on `CCOC(=O)c1c(-c2ccccc2)oc2ccc(NS(=O)(=O)c3ccccc3)cc12` yielded an activity change, positive = activation of -14.6%. Work on `Cc1ccc(NC(=O)CCc2c(C)nn(-c3ccc(N4CCCCC4)nn3)c2C)cc1F` yielded an activity change, positive = activation of 35.3%. In the case of `COC(=O)c1c(C)oc2c1cc(NS(=O)(=O)c1c(C)cc(C)cc1C)c1ccccc12`, the activity change, positive = activation is reported as -32.9%. Work on `COc1ccc(CCNC(=O)Cc2c(C)c3ccc(O)c(C)c3oc2=O)cc1OC` yielded an activity change, positive = activation of -20.1%. `COc1cccc(-c2cc(C(=O)Nc3ccc(OC)cc3OC)no2)c1` showed an activity change, positive = activation of -3.2%. For `CCc1nn(CC(=O)NCC(C)c2ccccc2)c(=O)c2cc3c(OC)cccc3n12` (stereo unspecified), the activity change, positive = activation was 1.78%. `Cc1ccc2nc(N3CCN(c4ccc(F)cc4)CC3)c3nnnn3c2c1` showed an activity change, positive = activation of -3.87%. In the case of `COc1cc(C)ccc1OCCCn1c(-c2ccc(Cl)cc2)nc2ccccc2c1=O`, the activity change, positive = activation is reported as 4.95%. In the case of `CCCCC(=O)Nc1cccc(-c2nc3ncccc3o2)c1C`, the activity change, positive = activation is reported as 32.5%. In the case of `CCOC(=O)c1ccc(N2CCN(c3ccccc3F)CC2)c(NC(=O)Nc2ccc(Cl)c(Cl)c2)c1`, the activity change, positive = activation is reported as -20.2%. Molecule `Cc1oc2ccc(O)c(CN3CCN(Cc4ccccc4)CC3)c2c1C(=O)Nc1ccccc1` has an activity change, positive = activation of -19%. In the case of `CC(C)OCCCNc1sc(S(=O)(=O)c2ccccc2)nc1S(=O)(=O)c1ccc(Cl)cc1`, the “activity change, positive = activation” value is reported as inactive: -10.5%. For `CCOc1ccc(NC(=O)CSc2ncn[nH]2)cc1`, the activity change, positive = activation was -0.033%. Molecule `Cc1cc(S(=O)(=O)Nc2cc3c(cc2NCc2ccccc2)n(C)c(=O)n3C)ccc1F` has an activity change, positive = activation of 35%. Work on `Cc1ccc2nc(N3CCN(c4cccc(C(F)(F)F)c4)CC3)c3nnnn3c2c1` yielded an activity change, positive = activation of 1.38%. In the case of `COc1cc2c(cc1OC)C(c1ccc(F)cc1)N(c1cccc(C#N)c1)C(=O)C2` (stereo unspecified), the activity change, positive = activation is reported as -16.4%. In the case of `Cc1nn(Cc2ccccc2Cl)c(C)c1NC(=O)c1cc(C(C)C)on1`, the activity change, positive = activation is reported as -17.7%. In the case of `COc1cccc(CNC(=O)C2CCCCN2S(=O)(=O)c2ccc(F)cc2)c1` (stereo unspecified), the activity change, positive = activation is reported as -5.27%. With `COc1ccccc1C1Nc2ccccc2-n2c(-c3ccccc3)c3c(=O)n(C)c(=O)n(C)c3c21` (stereo unspecified) the activity change, positive = activation was -15.6%. `O=S(=O)(Nc1ccc(-c2ccc(N3CCCCCC3)nn2)cc1)c1cccc(C(F)(F)F)c1` showed an activity change, positive = activation of 3.67%. Work on `N#Cc1ccc(NC(=O)c2cc(-c3cccc(Cl)c3)on2)cc1` yielded an activity change, positive = activation of 1.78%. For `COc1cc2oc(=O)c(CC(=O)NCCc3ccccc3F)c(C)c2cc1OC`, the activity change, positive = activation was -1.16%. `CCc1nnc2c3ccccc3nc(Nc3ccc(F)c(Cl)c3)n12` gave an activity change, positive = activation of 0.37%. In the case of `COc1ccc(CCNS(=O)(=O)c2ccc(F)c(C(=O)Nc3ccc(Cl)cc3)c2)cc1OC`, the “activity change, positive = activation” value is reported as inactive: -42.2%. Molecule `Cc1cccc(C)c1NC(=O)CCS(=O)(=O)c1ccc2c(c1)CC(C)N2C(=O)C1CC1` (stereo unspecified) has an activity change, positive = activation of -29.7%. Work on `CCCOc1ccc(NC(=O)CC2C(=O)N(c3cccc(C)c3)C(=O)N2CCc2ccncc2)cc1` (stereo unspecified) yielded an activity change, positive = activation of -13.2%. With `CCOc1ccc(NC(=O)c2ncn(-c3ccccc3)n2)cc1` the Potency was active: 8.91 µM. `COC(=O)c1cc2c(cc1NC(=O)c1c(C)nn(-c3ccc(C)cc3)c1-n1cccc1)OCO2` gave an activity change, positive = activation of 3.46%. `CCOC(=O)c1ccc(N2CCN(c3ccc(F)cc3)CC2)c(NC(=O)Nc2cccc(OC)c2)c1` showed an activity change, positive = activation of -32.3%. Work on `C=C(C)Cn1c(SCC(=O)Nc2cc(C)ccc2C)nc2sc3c(c2c1=O)CCCC3` yielded an activity change, positive = activation of 3.56%. With `CCOC(=O)c1cccc(NC(=O)CCc2c(C)nn(-c3ccc(N4CCCC4)nn3)c2C)c1` the activity change, positive = activation was 0.923%. With `Cc1ccc(C)c(CSc2ccc3nnc(CCNS(=O)(=O)c4ccccc4)n3n2)c1` the “activity change, positive = activation” value was inactive: -30%. For `CSc1ccc(CCNC(=O)Cn2ncc3c(=O)oc4ccccc4c32)cc1`, the “activity change, positive = activation” value was inactive: -4.03%. For `Cc1ccc(CN2C(=O)CN(C3CCC(C)CC3)C(=O)C2c2ccc(F)cc2)cc1` (stereo unspecified), the activity change, positive = activation was -15.3%. For `Cc1ccc(C(=O)Nc2cccc(-c3nc4ccccc4o3)c2)c(Cl)c1`, the activity change, positive = activation was -0.318%. With `COc1cc(NC(=O)CC2C(=O)N(c3cccc(C)c3)C(=O)N2Cc2ccc(F)cc2)cc(OC)c1` (stereo unspecified) the activity change, positive = activation was -20.4%. For `CCc1ccc(NC(=O)C(CC)n2c(=O)c(C(F)(F)F)nc3ccccc32)cc1` (stereo unspecified), the “activity change, positive = activation” value was inactive: 5.33%. Work on `COc1ccc(-c2cc(C(=O)Nc3c(C)nn(Cc4ccc(C)cc4)c3C)no2)cc1OC` yielded an activity change, positive = activation of -3.93%. For `Cc1ccc(Nc2nn3c(=O)c4cc5c(cc4nc3s2)OCO5)cc1Cl`, the “activity change, positive = activation” value was inactive: -13.2%. In the case of `Cc1cc(C)cc(S(=O)(=O)Nc2cccc(-c3ccc(N4CCOCC4)nn3)c2)c1`, the activity change, positive = activation is reported as -8.19%. `CCCc1c(C)c2ccc(O)c(CN3CCN(c4ccc(F)cc4)CC3)c2oc1=O` gave an activity change, positive = activation of -11.5%. `CCOC(=O)CN1C(=O)C(O)(CC(=O)c2cc(OC)ccc2OC)c2ccccc21` (stereo unspecified) gave an activity change, positive = activation of -10.6%.
Potency is the fitted concentration of half-maximal effect.
